Reference: ChEMBL document CHEMBL1201862, “PubChem BioAssay data set” (2004)
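All cell lines were grown in 96-well plates and treated with compound for 48 hours. GI50 marks 50% less growth.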 Activity calls are given as the source filed them. Rule as the data show it: active = GI50 up to about 1.1 µM and inactive = higher.

The molecules below were run on NCI-H322M (assay: DTP human tumour cell line panel, 48 h).

**Q.** For `CC1=CP(=O)(c2ccccc2)C=C(C)C1=C(Cl)Cl` (configuration not stated), which GI50 is on record?
**A.** The GI50 was inactive: 5.83 µM.

**Q.** How did the GI50 turn out when `CC1(C)CC[C@]2(C)CC=C3[C@]4(C)CC[C@H]5C(C)(C)C(=O)CC[C@]5(C)[C@H]4CC[C@@]3(C)[C@H]2C1` was run?
**A.** Its GI50 is inactive: > 100 µM.

**Q.** `O=c1[nH]nc(Cc2ccccc2)n1/N=C/c1c(O)ccc2ccccc12` was tested. Which GI50 did it give?
**A.** The GI50 was inactive: 24.2 µM.

**Q.** How did the GI50 turn out when `COc1ccc(N[S+]([O-])C2CCCCC2)cc1` (configuration not stated) was run?
**A.** The GI50 was inactive: > 100 µM.

**Q.** `COC1CC(N)(c2ccccc2)C(O)C(C)O1` (configuration not stated) was tested. Which GI50 did it give?
**A.** Its GI50 is inactive: > 100 µM.

**Q.** With `O=C1C=C(NCCc2ccccc2)c2ccccc2C1=O` as the molecule, how does the GI50 read?
**A.** The GI50 was inactive: 1.58 µM.

**Q.** How did the GI50 turn out when `CCN(CC)CCCNc1nc(=O)[nH]c(C)c1C(=O)Nc1cccc2cc3ccccc3cc12` was run?
**A.** Its GI50 is inactive: > 100 µM.

**Q.** How did the GI50 turn out when `COC1=CC(C)C2C[C@H]3O[C@H](O)C[C@H]4C(C)C(=O)C(O)C([C@@]2(C)C1=O)[C@@]34C` (some centres not stated) was run?
**A.** The GI50 was inactive: > 10 µM.

**Q.** Which GI50 does the source give for `CCC1CC(C)C(O)/C=C/C=C/CC(C)OC(=O)CC(O)C(OC)C1OC1OC(C)CC(O)(C(C)=O)C1O` (configuration not stated) here?
**A.** Its GI50 is inactive: > 100 µM.

**Q.** For `CCOc1cc2c(cc1O)CC[C@@H]1[C@@H]2CC[C@]2(C)C(N)CC[C@@H]12` (some centres not stated), which GI50 is on record?
**A.** The GI50 was inactive: 3.93 µM.

**Q.** Which GI50 does the source give for `CCOC(=O)/C=C1\c2ccccc2C(=O)N1CC(=O)OCC` here?
**A.** Its GI50 is inactive: > 100 µM.

**Q.** `CCOC(=O)Oc1c(OC)cc(C(=O)NC2CCc3cc(OC)c(OC)c(OC)c3-c3ccc(SC)c(=O)cc32)cc1OC` (configuration not stated) was tested. Which GI50 did it give?
**A.** The GI50 was active: 0.53 µM.

**Q.** For `CCCC(=O)N/S(=N/S(=O)(=O)c1ccc(Cl)cc1)C(Cl)(Cl)Cl` (configuration not stated), which GI50 is on record?
**A.** Its GI50 is inactive: > 100 µM.

**Q.** For `O=C(O)CCC1NC(/C(=C/c2ccccc2O)NC(=O)c2ccccc2)OC1=O` (configuration not stated), which GI50 is on record?
**A.** The GI50 was inactive: > 100 µM.

**Q.** For `CC1(C)C=Cc2c(cc(O)c3c(=O)c4cc(Cl)ccc4[nH]c23)O1`, which GI50 is on record?
**A.** The GI50 was inactive: 2.8 µM.

**Q.** `Cc1ccc([N+](=O)[O-])cc1NC(=O)/C(CC(=O)c1sc(C(N)=S)nc1C)=N\N` was tested. Which GI50 did it give?
**A.** The GI50 was inactive: > 100 µM.

**Q.** With `O=C1C2=Cc3ccccc3OC2(O)Oc2cc(O)cc(O)c21` (configuration not stated) as the molecule, how does the GI50 read?
**A.** The GI50 was inactive: > 100 µM.

**Q.** How did the GI50 turn out when `COc1ccc(/C=N/Nc2nc(-c3cc4oc(=O)n(C)c4cc3Cl)cs2)cc1OC` was run?
**A.** The GI50 was inactive: > 100 µM.

**Q.** With `CC1(C)C2CC(O)C1CCC2=O` (configuration not stated) as the molecule, how does the GI50 read?
**A.** The GI50 was inactive: > 100 µM.

**Q.** With `CC(C)(C)C(=C[S+]([O-])/N=C/c1ccccc1)C(C)(C)C` (configuration not stated) as the molecule, how does the GI50 read?
**A.** The GI50 was inactive: 84.1 µM.

**Q.** How did the GI50 turn out when `CC1C(c2ccccc2)NC(c2ccccc2)CC1(N)C#N` (configuration not stated) was run?
**A.** Its GI50 is inactive: > 100 µM.

**Q.** How did the GI50 turn out when `CC(C)(C)[Si](C)(C)OCC1OC(n2cnc3c(=O)[nH]c(N)nc32)C(O[Si](C)(C)C(C)(C)C)C1O[Si](C)(C)C(C)(C)C` (configuration not stated) was run?
**A.** Its GI50 is inactive: 3.64 µM.

**Q.** With `Cc1cc(S(=O)(=O)NC2=Nc3ccccc3C(c3ccccc3)N2)c(S)cc1Cl` (configuration not stated) as the molecule, how does the GI50 read?
**A.** Its GI50 is inactive: 15.2 µM.

**Q.** `Nc1ccc2nc3c(nc2c1)C(=O)c1ccccc1-3` was tested. Which GI50 did it give?
**A.** Its GI50 is inactive: > 100 µM.

**Q.** `OCC(CN1CCCCC1)(CN1CCCCC1)CN1CCCCC1` was tested. Which GI50 did it give?
**A.** The GI50 was inactive: > 100 µM.

**Q.** How did the GI50 turn out when `CCOC(=O)/C=C1/Oc2ccccc2C1(C)O` (configuration not stated) was run?
**A.** The GI50 was inactive: > 100 µM.

**Q.** `CN(CCCN1C(=O)c2cccc3cc([N+](=O)[O-])cc(c23)C1=O)CCN(C)CCCN1C(=O)c2cccc3cc([N+](=O)[O-])cc(c23)C1=O` was tested. Which GI50 did it give?
**A.** The GI50 was inactive: 27.7 µM.

**Q.** Which GI50 does the source give for `CC1=C(NC(=O)C(=O)NNC(=O)c2ccncc2)C(=O)c2ccccc2C1=O` here?
**A.** The GI50 was inactive: 14.8 µM.

**Q.** Which GI50 does the source give for `CCCCCCCCCCCC(=O)OC[C@@H](C[As](=O)(O)O)OC(=O)CCCCCCCCCCC` here?
**A.** Its GI50 is inactive: 9.2 µM.

**Q.** `CC[C@H](C)C1=C(O)[N@+]2([O-])Oc3ccc(-c4c(O)c(O)c(-c5ccc(OC(C)=O)cc5)c(OC(C)=O)c4OC(C)=O)cc3O[C@]2([C@@H](C)CC)C(=O)N1O` was tested. Which GI50 did it give?
**A.** Its GI50 is inactive: 29.4 µM.

**Q.** For `O=C1c2ccccc2S[C@@H](O)[C@@H]2CCCN12`, which GI50 is on record?
**A.** The GI50 was inactive: > 100 µM.

**Q.** With `O=C(O)c1cc2ccccc2c(/N=N/c2ccccc2)c1O` as the molecule, how does the GI50 read?
**A.** The GI50 was inactive: 39.6 µM.

**Q.** With `O=C(O)C1[C@@H](C(=O)O)C1(Br)CBr` (some centres not stated) as the molecule, how does the GI50 read?
**A.** Its GI50 is inactive: > 100 µM.

**Q.** With `N=C(N)SCC(=O)O` as the molecule, how does the GI50 read?
**A.** Its GI50 is inactive: > 100 µM.

**Q.** Which GI50 does the source give for `CN1C(=O)CC2CCCN2C1=O` (configuration not stated) here?
**A.** Its GI50 is inactive: > 100 µM.

**Q.** With `CC1C2(C)OC(=N)C(C#N)(C(c3ccco3)O2)C1(C#N)C#N` (configuration not stated) as the molecule, how does the GI50 read?
**A.** The GI50 was inactive: > 100 µM.

**Q.** With `O=C(OCc1nc2ccc(Br)cc2c(=O)n1-c1ccccc1)c1ccccc1O` as the molecule, how does the GI50 read?
**A.** Its GI50 is inactive: > 100 µM.

**Q.** For `CC/N=C(\N)CSS(=O)(=O)O`, which GI50 is on record?
**A.** The GI50 was inactive: > 100 µM.

**Q.** With `CC1(C)/C(=N\NC(N)=O)C2CCC1C2` (configuration not stated) as the molecule, how does the GI50 read?
**A.** Its GI50 is inactive: > 100 µM.

**Q.** `O=C1C(=O)N(c2nccs2)C(=O)C(=O)C1c1nc2ccccc2s1` was tested. Which GI50 did it give?
**A.** Its GI50 is inactive: > 100 µM.

**Q.** `COC(=O)C1[C@H](C(=O)OC)C1(Br)CBr` (some centres not stated) was tested. Which GI50 did it give?
**A.** Its GI50 is inactive: > 100 µM.

**Q.** With `OC1(c2ccccc2)C2CCN(CC2)C1CN1CCOCC1` (configuration not stated) as the molecule, how does the GI50 read?
**A.** The GI50 was inactive: > 100 µM.

**Q.** With `O=C(CC1(O)C(=O)Nc2ccccc21)c1ccc(O)cc1` (configuration not stated) as the molecule, how does the GI50 read?
**A.** Its GI50 is inactive: > 100 µM.

**Q.** For `COc1cc2c(cc1O)NC(=O)[C@@H]1CCCN1C2=O`, which GI50 is on record?
**A.** Its GI50 is inactive: > 100 µM.

**Q.** How did the GI50 turn out when `O=C(Nn1c(-c2ccccc2)nc2ccccc2c1=O)c1ccc([N+](=O)[O-])cc1` was run?
**A.** Its GI50 is inactive: > 100 µM.

**Q.** With `Cc1cn(C(C)OCCN2C(=O)c3ccccc3C2=O)c(=O)[nH]c1=O` (configuration not stated) as the molecule, how does the GI50 read?
**A.** Its GI50 is inactive: > 100 µM.

**Q.** How did the GI50 turn out when `COc1ccc(C2C(Cl)C(=O)N2NC(=O)Cc2ccccc2)cc1OC` (configuration not stated) was run?
**A.** Its GI50 is inactive: > 100 µM.

**Q.** How did the GI50 turn out when `Cc1ccc2c(c1)-c1c3c(nn1C)-c1ccccc1SC3O2` (configuration not stated) was run?
**A.** The GI50 was inactive: > 100 µM.

**Q.** For `CN/C(=N\n1cnnc1)OC`, which GI50 is on record?
**A.** Its GI50 is inactive: > 100 µM.

**Q.** Which GI50 does the source give for `O=C1/C(=C/c2ccc(O)cc2)CCCC1CN1CCCCC1` (configuration not stated) here?
**A.** The GI50 was inactive: 17.3 µM.

**Q.** `CN/N=C(\C)c1c(O)cc(C)oc1=O` was tested. Which GI50 did it give?
**A.** Its GI50 is inactive: > 100 µM.

**Q.** With `O=C(c1cc(O)ccc1O)c1ccccc1C(Cl)(Cl)Cl` as the molecule, how does the GI50 read?
**A.** Its GI50 is inactive: > 100 µM.

**Q.** For `OCCSCC(O)Cn1cnc2c(O)nc(Nc3ccccc3)nc21` (configuration not stated), which GI50 is on record?
**A.** The GI50 was inactive: > 100 µM.

**Q.** For `O=C1Nc2c(Cl)cc(Cl)cc2/C1=N/NC(=O)c1ccccc1O`, which GI50 is on record?
**A.** Its GI50 is inactive: 16.3 µM.

**Q.** `Nc1ccc(/C=C/c2ccc3cccnc3c2)cc1` was tested. Which GI50 did it give?
**A.** Its GI50 is inactive: > 100 µM.

**Q.** With `COc1cc([N+](=O)[O-])ccc1NC1=CC(=O)CCC1` as the molecule, how does the GI50 read?
**A.** Its GI50 is inactive: > 100 µM.

**Q.** Which GI50 does the source give for `CC(CCCC1SCC2NC(=O)NC21)C(=O)O` (configuration not stated) here?
**A.** Its GI50 is inactive: > 100 µM.

**Q.** With `Nc1nc2c(ncn2C2CCC(CO)O2)c(=O)n1C(=O)c1ccccc1` (configuration not stated) as the molecule, how does the GI50 read?
**A.** Its GI50 is inactive: > 100 µM.

**Q.** For `CC/C(Cl)=N\OC(=O)Nc1ccccc1OC(F)(F)F`, which GI50 is on record?
**A.** The GI50 was inactive: 19.6 µM.

**Q.** How did the GI50 turn out when `CCCCCCCCCCCCCCCCCC(=O)NCC(COP(=O)([O-])OCC[N+](C)(C)C)OCC` (configuration not stated) was run?
**A.** Its GI50 is inactive: 19.2 µM.

**Q.** `O=C(NCCCN1CCN(CCCNC(=O)c2cccc3ccccc23)CC1)c1cccc2ccccc12` was tested. Which GI50 did it give?
**A.** Its GI50 is inactive: 83.2 µM.

**Q.** `CC[C@]12C=CCN3CC[C@@]4(c5cc(N=O)c(OC)cc5N(C)[C@H]4[C@@](O)(C(=O)OC)[C@@H]1OC(C)=O)[C@@H]32` was tested. Which GI50 did it give?
**A.** Its GI50 is inactive: > 100 µM.

**Q.** With `COc1cc(/C=C2\C[C@H]3[C@@H]4CC=C5C[C@@H](OC(C)=O)CC[C@]5(C)[C@H]4CC[C@]3(C)\C2=N\O)cc(OC)c1OC` as the molecule, how does the GI50 read?
**A.** The GI50 was inactive: 8.55 µM.

**Q.** With `CCN(CC)Cc1cc(Nc2ccnc3ccc4c(nnn4C)c23)ccc1O` as the molecule, how does the GI50 read?
**A.** The GI50 was inactive: 14 µM.

**Q.** `Cc1[nH]n(-c2nc3c(c(=O)[nH]2)CCCC3)c(=O)c1CCO` was tested. Which GI50 did it give?
**A.** The GI50 was inactive: > 100 µM.

**Q.** How did the GI50 turn out when `CC1(c2nc3ccccc3[nH]2)CCC(CO)C(C)(C)O1` (configuration not stated) was run?
**A.** The GI50 was inactive: > 100 µM.

**Q.** `O=C(/C=C1\C[C@H]2C=Nc3ccccc3C(=O)N2C1)NCCCCCNC(=O)/C=C1\C[C@H]2C=Nc3ccccc3C(=O)N2C1` was tested. Which GI50 did it give?
**A.** The GI50 was inactive: 15.7 µM.
